Cytotoxicity call and growth inhibition call data for 24 compounds are collected here from the antibiotic and cytotoxicity screens of Wong et al. (2023).

One experiment has as its system HSkMC. Kind of experiment: cytotoxicity call (relative viability < 0.9). The conditions noted are these: 10 µM.
In another experiment the test system is HepG2. Kind of experiment: cytotoxicity call (relative viability < 0.9). The conditions noted are these: 10 µM.
The subject of another experiment is S. aureus RN4220. Kind of experiment: growth inhibition call (relative growth <= 0.2). The conditions noted are these: 50 µM.

SMILES strings stand for the structures. The list shows a part of the results.

Consider `Cc1ccc(S(=O)(=O)Nc2ccc3c(c2)C(=O)N([C@@H](C)CO)C[C@H](C)[C@H](CN(C)C(=O)Nc2c(C)noc2C)OCCCC[C@@H](C)O3)cc1`, for which the cytotoxicity call with HSkMC and in the experiment on HepG2 was “inactive” each time. The growth inhibition call with S. aureus RN4220 is “inactive”.
As for `C[C@@H]1CCCCO[C@H](CN(C)Cc2ccccc2)[C@H](C)CN([C@H](C)CO)C(=O)c2cc(NS(=O)(=O)c3cccs3)ccc2O1`, the cytotoxicity call in the experiment with HSkMC and in the experiment with HepG2 was “inactive” in each case. Moreover, the growth inhibition call with S. aureus RN4220 was “inactive”.
On to `C[C@@H]1CN([C@H](C)CO)C(=O)Cc2cc(NC(=O)c3ccncc3)ccc2O[C@H]1CN(C)Cc1ccncc1`, for which the cytotoxicity call in the experiment on HSkMC and in the experiment on HepG2 was “inactive” each time. Further, the growth inhibition call in the experiment with S. aureus RN4220 is “inactive”.
Turning to `CS(=O)(=O)N1[C@@H]2c3ccc(-c4ccc(F)cc4)c(=O)n3C[C@H]1[C@H](CO)[C@H]2C(=O)N1CCOCC1`, the cytotoxicity call with HSkMC and with HepG2 was “inactive” in each case. Further, in the experiment on S. aureus RN4220, the growth inhibition call was “inactive”.
Regarding `C[C@@H]1CN([C@H](C)CO)C(=O)c2cc(NC(=O)c3ccccc3)ccc2O[C@@H](C)CCCCO[C@H]1CN(C)Cc1ccc2c(c1)OCO2`, in the experiment with HSkMC, the cytotoxicity call is “inactive”. Moreover, the cytotoxicity call in the experiment on HepG2 is “active”. Besides, the growth inhibition call with S. aureus RN4220 was “inactive”.
For the compound `C[C@H](CO)N1C[C@H](C)[C@H](CN(C)C(=O)Nc2ccccc2)Oc2ccc(NC(=O)CCCCCC(=O)Nc3ccccc3N)cc2CC1=O`, the cytotoxicity call in the experiment with HSkMC and in the experiment on HepG2 was “inactive” each time. In the experiment on S. aureus RN4220, the growth inhibition call is “inactive”.
Regarding `C[C@@H]1CN([C@@H](C)CO)C(=O)c2cc(NC(=O)CCC(F)(F)F)ccc2O[C@H]1CN(C)Cc1ccc(Cl)c(Cl)c1`, in the experiment on HSkMC, the cytotoxicity call is “inactive”. The cytotoxicity call in the experiment on HepG2 is “active”. In the experiment on S. aureus RN4220, the growth inhibition call is “inactive”.
For the compound `C[C@@H]1CN([C@@H](C)CO)C(=O)c2cccc(NS(C)(=O)=O)c2O[C@@H]1CN(C)S(=O)(=O)c1ccc(F)cc1`, the cytotoxicity call with HSkMC and in the experiment with HepG2 was “inactive” each time. The growth inhibition call in the experiment on S. aureus RN4220 is “inactive”.
As to `C[C@@H]1CN([C@@H](C)CO)C(=O)c2cc(NC(=O)Cc3cn(C)c4ccccc34)ccc2O[C@H]1CN(C)Cc1ccc(C(F)(F)F)cc1`, the cytotoxicity call in the experiment with HSkMC and with HepG2 was “inactive” throughout. The growth inhibition call in the experiment with S. aureus RN4220 was “inactive”.
For the compound `Cc1ccc(S(=O)(=O)N(C)C[C@@H]2Oc3ccc(NS(C)(=O)=O)cc3CC(=O)N([C@H](C)CO)C[C@@H]2C)cc1`, the cytotoxicity call in the experiment with HSkMC and with HepG2 was “inactive” each time. Moreover, the growth inhibition call in the experiment on S. aureus RN4220 was “inactive”.
As to `C[C@@H]1CN([C@H](C)CO)C(=O)c2cc(NC(=O)CCCN(C)C)ccc2O[C@H]1CN(C)Cc1ccc2c(c1)OCO2`, the cytotoxicity call in the experiment on HSkMC and in the experiment on HepG2 was “inactive” in each case. Moreover, in the experiment on S. aureus RN4220, the growth inhibition call is “inactive”.
As to `COc1ccc(CN2C[C@H](C)[C@@H](OC)CN(C)C(=O)c3cc(NC(=O)c4nc5ccccc5s4)ccc3OC[C@H]2C)cc1`, the cytotoxicity call in the experiment with HSkMC and with HepG2 was “inactive” in each case. Further, in the experiment with S. aureus RN4220, the growth inhibition call was “inactive”.
As for `C[C@H](O)C#Cc1ccc2c(c1)O[C@H](CN(C)C(=O)C1CCCCC1)[C@H](C)CN([C@H](C)CO)S2(=O)=O`, the cytotoxicity call in the experiment on HSkMC and with HepG2 was “inactive” throughout. The growth inhibition call in the experiment with S. aureus RN4220 was “inactive”.
With `C[C@H](CO)N1C[C@H](C)[C@@H](CN(C)Cc2ccc(C(=O)O)cc2)OCCCC[C@H](C)Oc2ccc(NC(=O)NC3CCCCC3)cc2C1=O`, the cytotoxicity call in the experiment on HSkMC and in the experiment with HepG2 was “inactive” throughout. Besides, the growth inhibition call in the experiment on S. aureus RN4220 was “inactive”.
As to `O=C(CN1CCOCC1)NCC[C@H]1CC[C@@H](NC(=O)c2ccccc2F)[C@H](CO)O1`, the cytotoxicity call in the experiment with HSkMC and in the experiment with HepG2 was “inactive” in each case. Moreover, the growth inhibition call in the experiment on S. aureus RN4220 is “inactive”.
In the case of `C[C@@H]1CN([C@H](C)CO)C(=O)c2cc(NS(=O)(=O)c3cn(C)cn3)ccc2O[C@H]1CN(C)S(C)(=O)=O`, the cytotoxicity call in the experiment on HSkMC and with HepG2 was “inactive” each time. In addition, the growth inhibition call in the experiment with S. aureus RN4220 was “inactive”.
Regarding `C[C@H](CO)N1C[C@H](C)[C@H](CN(C)S(=O)(=O)c2ccccc2)Oc2c(NS(C)(=O)=O)cccc2C1=O`, the cytotoxicity call in the experiment with HSkMC and in the experiment with HepG2 was “inactive” each time. In the experiment on S. aureus RN4220, the growth inhibition call is “inactive”.
Take `C[C@H]1CN([C@@H](C)CO)C(=O)Cc2cc(NS(C)(=O)=O)ccc2O[C@@H]1CN(C)S(C)(=O)=O`: the cytotoxicity call in the experiment on HSkMC and in the experiment on HepG2 was “inactive” in each case. The growth inhibition call with S. aureus RN4220 was “inactive”.
As to `Cc1ccc(S(=O)(=O)N(C)C[C@H]2OCCCC[C@@H](C)Oc3ccc(NC(=O)Nc4cccc5ccccc45)cc3C(=O)N([C@@H](C)CO)C[C@@H]2C)cc1`, the cytotoxicity call in the experiment on HSkMC and with HepG2 was “inactive” each time. For the same compound, in the experiment with S. aureus RN4220, the growth inhibition call was “inactive”.
`CCCNC(=O)N(C)C[C@H]1Oc2cc(-c3ccccc3F)ccc2S(=O)(=O)N([C@@H](C)CO)C[C@H]1C`: the cytotoxicity call in the experiment with HSkMC and with HepG2 was “inactive” throughout. Further, the growth inhibition call in the experiment with S. aureus RN4220 is “inactive”.
Consider `COC(=O)c1c2oc(c1C(=O)OC)C(=O)N[C@H](Cc1ccccc1)Cn1cc(nn1)[C@@H](Cc1ccccc1)NC(=O)N[C@@H](CO)CC2`, for which the cytotoxicity call in the experiment on HSkMC and in the experiment with HepG2 was “inactive” throughout. The growth inhibition call in the experiment on S. aureus RN4220 is “inactive”.
As to `CC(=O)N(C)C[C@@H]1Oc2cc(C#CCN(C)C)ccc2S(=O)(=O)N([C@@H](C)CO)C[C@@H]1C`, the cytotoxicity call in the experiment with HSkMC and with HepG2 was “inactive” each time. In the experiment with S. aureus RN4220, the growth inhibition call is “inactive”.
Turning to `C[C@@H]1CCCCO[C@@H](CN(C)C(=O)c2ccncc2)[C@@H](C)CN([C@H](C)CO)C(=O)c2cc(NS(=O)(=O)c3cn(C)cn3)ccc2O1`, the cytotoxicity call in the experiment on HSkMC (human skeletal muscle cells) and in the experiment on HepG2 was “inactive” each time. Moreover, the growth inhibition call in the experiment on S. aureus RN4220 was “inactive”.
In the case of `COc1ccc(S(=O)(=O)Nc2ccc3c(c2)C(=O)N([C@@H](C)CO)C[C@H](C)[C@@H](CN(C)C(=O)NC2CCCCC2)OCCCC[C@H](C)O3)cc1`, the cytotoxicity call with HSkMC and with HepG2 was “inactive” throughout. The growth inhibition call in the experiment with S. aureus RN4220 was “inactive”.
